{"source": "the supplement of paper PMC12217912", "parents": {"B1": {"name": "TEV protease; numbered along this chain (parent)", "chain": "MGESLFKGPRDYNPISSSICHLTNESDGHTTSLYGIGFGPFIITNKHLFRRNNGTLVVQSLHGVFKVKDTTTLQQHLVDGRDMIIIRMPKDFPPFPQKLKFREPQREERICLVTTNFQTKSMSSMVSDTSCTFPSGDGIFWKHWIQTKDGQCGSPLVSTRDGFIVGIHSASNFTNTNNYFTSVPKNFMELLTNQEAQQWVSGWRLNADSVLWGGHKVFMVKPEEPFQPVKEATQL"}}, "variants_of": "B1", "assay": "raw area under fraction-flipped curve 0-4 h after induction (AUC4h, not background-subtracted), DNA-recorder readout of cleavage of the substrate (dimensionless); higher = more cleavage of the substrate by the protease variant", "details": "temperature: 34 °C; time window: 0-4 h after rhamnose induction", "experimental": "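In vivo DNA recorder in E. coli TOP10(DE3) ΔrhaA at 34 °C. Each TEVp single-site mutant (parent TEVp 0) is paired with a single-site variant of the 7-mer TEVs (canonical ENLYFQ|S). The substrate sits between flexible linkers in a Bxb1-sfGFP-TEVs-SsrA fusion, so cleavage stabilises Bxb1 and speeds flipping of a recombination array, read by NGS. The value is the raw area under the fraction-flipped curve over 0-4 h after rhamnose induction (AUC4h), with ≥20 reads per time point. It is not background-subtracted; inactive controls average about 0.047.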", "note": "Some of the results follow. Sequences were assembled here from the parent chain. Inactive controls read about 0.05.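 Note: Bxb1 expression induced with 0.2% (w/v) L-rhamnose at OD600 near 0.5, cultures sampled hourly, flipped fraction per protease–substrate barcode pair counted by paired-end Illumina sequencing.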"}
{"variant": "MGESLFKGPRDYNPISSSICHLTNESDGHTTSLYGIGFGPFIITNKHLFRRNNGTLVVQSLHGVFKVKDTTTLQQHLVDGRDMIIIRMPKDFPPFPQKLKFREPQREERICLVTTNFQTKSMSSMVSDTSCTFPSGDGIFWKHWIQTKDGQCGSPLVSTRDGFIVGIHSASNFTNTNNYFTSVPKNFMELLTNQEAQQWVSGWRLNADSVLWGGHKVFMVKPEESFQPVKEATQL", "note": "[P225S]", "values": [{"measurement": "area with substrate ENLYAQS", "value": 0.0484}, {"measurement": "area with substrate ENLYCQS", "value": 0.0858}, {"measurement": "area with substrate ENLYDQS", "value": 0.0445}, {"measurement": "area with substrate ENLYHQS", "value": 0.0699}, {"measurement": "area with substrate ENLYMQS", "value": 0.0966}, {"measurement": "area with substrate ENLYNQS", "value": 0.0683}, {"measurement": "area with substrate ENLYRQS", "value": 0.0382}, {"measurement": "area with substrate ENLYSQS", "value": 0.0657}, {"measurement": "area with substrate ENLYWQS", "value": 0.0645}]}
{"variant": "MGESLFKGPRDYNPISSSICHLTNESDGHTTSLYGIGFGPFIITNKHLFRRNNGTLVVQSLHGVFKVKDTTTLQQHLVDGRDMIIIRMPKDFPPFPQKLKFREPQREERICLVTTNFQTKSMSSMVSDTSCTFPSGDGIFWKHWIQTKDGQCGSPLVSTRDGFIVGIHSASNFTNTNNYFTSVPKNFMELLTNQEAQQWVSGWRLNADSVLWGGHKVFMVKPEEPFQPVKEACQL", "note": "[T233C]", "values": [{"measurement": "area with substrate ENLYAQS", "value": 0.0401}, {"measurement": "area with substrate ENLYCQS", "value": 0.0857}, {"measurement": "area with substrate ENLYEQS", "value": 0.0616}, {"measurement": "area with substrate ENLYGQS", "value": 0.0433}, {"measurement": "area with substrate ENLYHQS", "value": 0.0717}, {"measurement": "area with substrate ENLYIQS", "value": 0.118}, {"measurement": "area with substrate ENLYKQS", "value": 0.0569}, {"measurement": "area with substrate ENLYLQS", "value": 0.108}, {"measurement": "area with substrate ENLYNQS", "value": 0.0686}, {"measurement": "area with substrate ENLYPQS", "value": 0.066}, {"measurement": "area with substrate ENLYRQS", "value": 0.0551}, {"measurement": "area with substrate ENLYVQS", "value": 0.0731}, {"measurement": "area with substrate ENLYWQS", "value": 0.0619}]}
{"variant": "MGESLFKGPRDYNPISSSICHLTNESDGHTTSLYGIGFGPFIITNKHLFRRNNGTLVVQSLHGVFKVKDTTTLQQHLVDGRDMIIIRMPKDFPPFPQKLKFREPQREERICLVTTNFQTKSMSSMVSDTSCTFPSGDGIFWKHWIQTKDGQCGSPLVSTRDGFIVGIHSASNFTNTNNYFTSVPKNFMELLTNQEAEQWVSGWRLNADSVLWGGHKVFMVKPEEPFQPVKEATQL", "note": "[Q197E]", "values": [{"measurement": "area with substrate ENLYAQS", "value": 0.0531}, {"measurement": "area with substrate ENLYCQS", "value": 0.0721}, {"measurement": "area with substrate ENLYDQS", "value": 0.0568}, {"measurement": "area with substrate ENLYGQS", "value": 0.0766}, {"measurement": "area with substrate ENLYIQS", "value": 0.128}, {"measurement": "area with substrate ENLYKQS", "value": 0.0682}, {"measurement": "area with substrate ENLYLQS", "value": 0.0739}, {"measurement": "area with substrate ENLYMQS", "value": 0.075}, {"measurement": "area with substrate ENLYNQS", "value": 0.0657}, {"measurement": "area with substrate ENLYQQS", "value": 0.0646}, {"measurement": "area with substrate ENLYSQS", "value": 0.0543}, {"measurement": "area with substrate ENLYTQS", "value": 0.0687}, {"measurement": "area with substrate ENLYVQS", "value": 0.093}, {"measurement": "area with substrate ENLYWQS", "value": 0.071}]}
{"variant": "MGESLFKGPRDYNPISSSICHLTNESDGHTTSLYGIGFGPFIITNKHLFRRNNGTLVVQSLHGVFKVKDTTTLQQHLVDGRDMIIIRMPKDFPPFPQKLKFREPQREERICLVTVNFQTKSMSSMVSDTSCTFPSGDGIFWKHWIQTKDGQCGSPLVSTRDGFIVGIHSASNFTNTNNYFTSVPKNFMELLTNQEAQQWVSGWRLNADSVLWGGHKVFMVKPEEPFQPVKEATQL", "note": "[T115V]", "values": [{"measurement": "area with substrate ENLYAQS", "value": 0.0895}, {"measurement": "area with substrate ENLYDQS", "value": 0.0668}, {"measurement": "area with substrate ENLYEQS", "value": 0.0804}, {"measurement": "area with substrate ENLYGQS", "value": 0.0568}, {"measurement": "area with substrate ENLYHQS", "value": 0.0782}, {"measurement": "area with substrate ENLYIQS", "value": 0.139}, {"measurement": "area with substrate ENLYMQS", "value": 0.087}, {"measurement": "area with substrate ENLYNQS", "value": 0.0612}, {"measurement": "area with substrate ENLYQQS", "value": 0.0636}, {"measurement": "area with substrate ENLYSQS", "value": 0.069}, {"measurement": "area with substrate ENLYVQS", "value": 0.11}, {"measurement": "area with substrate ENLYYQS", "value": 0.0535}]}
{"variant": "MGESLFKGPRDYNPISSSICHLTNESDGHTTSLYGIGFGPFIITNKHLFRRNNGTLVVQSLHGVFKVKDTTTLQQHLVDGRDMIIIRMPKDFPPFPQKLKFREPQREERICLVTSNFQTKSMSSMVSDTSCTFPSGDGIFWKHWIQTKDGQCGSPLVSTRDGFIVGIHSASNFTNTNNYFTSVPKNFMELLTNQEAQQWVSGWRLNADSVLWGGHKVFMVKPEEPFQPVKEATQL", "note": "[T115S]", "values": [{"measurement": "area with substrate ENLYAQS", "value": 0.0601}, {"measurement": "area with substrate ENLYCQS", "value": 0.101}, {"measurement": "area with substrate ENLYEQS", "value": 0.0736}, {"measurement": "area with substrate ENLYGQS", "value": 0.0731}, {"measurement": "area with substrate ENLYHQS", "value": 0.0727}, {"measurement": "area with substrate ENLYIQS", "value": 0.146}, {"measurement": "area with substrate ENLYKQS", "value": 0.0413}, {"measurement": "area with substrate ENLYLQS", "value": 0.102}, {"measurement": "area with substrate ENLYMQS", "value": 0.0822}, {"measurement": "area with substrate ENLYNQS", "value": 0.0299}, {"measurement": "area with substrate ENLYTQS", "value": 0.0792}]}
{"variant": "MGESLFKGPRDYNPISSSICHLTNESDGHTTSLYGIGFGPFIITNKHLFRRNNGTLVVQSLHGVFKVKDTTTLQQHLVDGRDMIIIRMPKDFPPFPQKLKFREPQREERICLVTTNFQTKSMSSMVSDTSCTFPSGDGIFWKHWIQTKDGQCGSPLVSTRDGFIVGIHSASNFTNTNNYFTSVPKNFMELLTNQEAQQWVSGWRLNDDSVLWGGHKVFMVKPEEPFQPVKEATQL", "note": "[A207D]", "values": [{"measurement": "area with substrate ENLYAQS", "value": 0.117}, {"measurement": "area with substrate ENLYDQS", "value": 0.0646}, {"measurement": "area with substrate ENLYEQS", "value": 0.067}, {"measurement": "area with substrate ENLYGQS", "value": 0.0654}, {"measurement": "area with substrate ENLYHQS", "value": 0.0677}, {"measurement": "area with substrate ENLYIQS", "value": 0.125}, {"measurement": "area with substrate ENLYKQS", "value": 0.0456}, {"measurement": "area with substrate ENLYLQS", "value": 0.115}, {"measurement": "area with substrate ENLYMQS", "value": 0.073}, {"measurement": "area with substrate ENLYNQS", "value": 0.0585}, {"measurement": "area with substrate ENLYPQS", "value": 0.0736}, {"measurement": "area with substrate ENLYQQS", "value": 0.0811}, {"measurement": "area with substrate ENLYSQS", "value": 0.0676}, {"measurement": "area with substrate ENLYVQS", "value": 0.128}, {"measurement": "area with substrate ENLYWQS", "value": 0.0771}, {"measurement": "area with substrate ENLYYQS", "value": 0.0552}]}
{"variant": "MGESLFKGPRDYNPISSSICHLTNESDGHTTSLYGIGFGPFIITNKHLFRRNNGTLVVQSLHGVFKVKDTTTLQQHLVDGRDMIIIRMPKDFPPFPQKLKFREPQREERICLVTTNFQTKSMSSMVSDTSCTFPSGDGIFWKHWIQTKDGQCGSPLVSTRDGFIVGIHSASNFTNTKNYFTSVPKNFMELLTNQEAQQWVSGWRLNADSVLWGGHKVFMVKPEEPFQPVKEATQL", "note": "[N177K]", "values": [{"measurement": "area with substrate ENLYAQS", "value": 0.0393}, {"measurement": "area with substrate ENLYEQS", "value": 0.0597}, {"measurement": "area with substrate ENLYGQS", "value": 0.0634}, {"measurement": "area with substrate ENLYHQS", "value": 0.0705}, {"measurement": "area with substrate ENLYKQS", "value": 0.061}, {"measurement": "area with substrate ENLYMQS", "value": 0.0838}, {"measurement": "area with substrate ENLYNQS", "value": 0.0822}, {"measurement": "area with substrate ENLYPQS", "value": 0.095}, {"measurement": "area with substrate ENLYQQS", "value": 0.0798}, {"measurement": "area with substrate ENLYSQS", "value": 0.0718}]}
{"variant": "MGESLFKGPRDYNPISSSICHLTNESDGHTTSLYGIGFGPFIITNKHLFRRNNGTLVVQSLHGVFKVKDTTTLQQHLVDGRDMIIIRMPKDFPPFPQKLKFREPQREERICLVTTNFQTKSMSSMVSDTSCTFPSGDGIFWKHWIQTKDGQCGSPLVSTRDGFIVGIHSASNFTNTNNYFTSVPKNFMELLTNQEAQQWVSGWRLIADSVLWGGHKVFMVKPEEPFQPVKEATQL", "note": "[N206I]", "values": [{"measurement": "area with substrate ENLYAQS", "value": 0.075}, {"measurement": "area with substrate ENLYDQS", "value": 0.0732}, {"measurement": "area with substrate ENLYEQS", "value": 0.0506}, {"measurement": "area with substrate ENLYHQS", "value": 0.0651}, {"measurement": "area with substrate ENLYMQS", "value": 0.0635}, {"measurement": "area with substrate ENLYNQS", "value": 0.0496}, {"measurement": "area with substrate ENLYRQS", "value": 0.0627}, {"measurement": "area with substrate ENLYSQS", "value": 0.0686}, {"measurement": "area with substrate ENLYWQS", "value": 0.0778}, {"measurement": "area with substrate ENLYYQS", "value": 0.0539}]}
{"variant": "MGESLFKGPRDYNPISSSICHLTNESDGHTTSLYGIGFGPFIITNKHLERRNNGTLVVQSLHGVFKVKDTTTLQQHLVDGRDMIIIRMPKDFPPFPQKLKFREPQREERICLVTTNFQTKSMSSMVSDTSCTFPSGDGIFWKHWIQTKDGQCGSPLVSTRDGFIVGIHSASNFTNTNNYFTSVPKNFMELLTNQEAQQWVSGWRLNADSVLWGGHKVFMVKPEEPFQPVKEATQL", "note": "[F49E]", "values": [{"measurement": "area with substrate ENLYAQS", "value": 0.0519}, {"measurement": "area with substrate ENLYCQS", "value": 0.0567}, {"measurement": "area with substrate ENLYDQS", "value": 0.0444}, {"measurement": "area with substrate ENLYEQS", "value": 0.0568}, {"measurement": "area with substrate ENLYGQS", "value": 0.0548}, {"measurement": "area with substrate ENLYHQS", "value": 0.0435}, {"measurement": "area with substrate ENLYIQS", "value": 0.0518}, {"measurement": "area with substrate ENLYKQS", "value": 0.0416}, {"measurement": "area with substrate ENLYMQS", "value": 0.0535}, {"measurement": "area with substrate ENLYNQS", "value": 0.0574}, {"measurement": "area with substrate ENLYPQS", "value": 0.0535}, {"measurement": "area with substrate ENLYQQS", "value": 0.0534}, {"measurement": "area with substrate ENLYSQS", "value": 0.0498}, {"measurement": "area with substrate ENLYWQS", "value": 0.057}, {"measurement": "area with substrate ENLYYQS", "value": 0.0608}]}
